# According to PubChem BioAssay AID686971 (National Center for Advancing Translational Sciences (NCATS), 2013):
# About 7,500 (2.1%) of roughly 360,000 compounds were called active. The shares of active, inactive and inconclusive entries below differ from those in the screen. Calls come from the whole dose curve; as a rule, active = well fitted cell-killing curve with a large enough effect; inconclusive = small, poorly fitted or top-dose-only effect, or effect the other way, or another doubt; inactive = no such curve, though single readings can be large or run the other way. Potencies of inconclusive entries are left out as doubtful fits.
# Assay: qHTS for induction of synthetic lethality in tumor cells producing 2HG: qHTS for the HT-1080-IDH1KD cell line;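 for activity, negative = toxicity: 0% = DMSO wells and -100% = cell-free medium wells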
# Conditions: HT-1080 IDH1 knockdown viability, ATP luminescence, 48 h; activity, negative = toxicity: at 46.1 µM (top of the series) unless noted
# Procedure, shortened: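 Viability of IDH1-knockdown HT-1080 fibrosarcoma cells was assessed by CellTiter-Glo after 48 h at 37 °C with titrated compound; concentration-effect curves were classified by fit quality and response size.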
# Potency is the fitted concentration of half-maximal effect; tags give direction and shape of the fitted curve.
Structure (SMILES),Potency,"activity, negative = toxicity"
COc1cc2nc(N(C)C)nc(N)c2cc1OC,"inconclusive [cytotoxic, single point]",
CCn1cc2c(c1-c1cccc(C)c1)c(=O)n(C)c(=O)n2C,,inactive: 1.79%
O=C(Cn1cc(S(=O)(=O)N2CCN(c3ccccc3F)CC2)c2ccccc2c1=O)NCCCN1CCCCCC1,"inconclusive [cytotoxic, single point]",
O=C(/C=C/c1cc2c(cc1Br)OCO2)NCc1ccc(F)cc1,"inconclusive [cytotoxic, single point]",
CC(C)(C)c1cc(OC(=O)c2ccccc2F)ccc1O,active: 20.6 µM,
CCCCCCCCN1C(=O)[C@H](CC(=O)NCCCCc2ccccc2)C[C@@]2(C(=O)OC)CC(C)(C)CC=C12,"inconclusive [cytotoxic, single point]",
O=C(Cn1c(CN2CCCCC2)nc2ccccc2c1=O)Nc1ccccc1,"inconclusive [cytotoxic, single point]",
CN(C(=S)Nc1ccc(Oc2ccccc2)cc1)C1CCCCC1,"inconclusive [cytotoxic, single point]",
C=CCn1c(CCNC(=O)c2ccccc2F)nnc1SCc1nc2ccccc2c(=O)[nH]1,"inconclusive [cytotoxic, partial curve]",
CC(C)c1cc2c(c(O)c1O)[C@@]13CCCC(C)(C)C1CC2OC3=O (stereo not given in full),"inconclusive [cytotoxic, single point]",
O=C(c1ccccc1)c1ccc(Cn2cc(CCCO)nn2)cc1,,inactive: 0.766%
[O-][n+]1onc2c1CCc1[nH]c(-c3ccccc3)nc1-2,"inconclusive [cytotoxic, single point]",
CC(=O)Oc1ccc2ccccc2c1C(NC(=O)Cc1ccccc1)c1ccccc1 (stereo not given),"inconclusive [cytotoxic, single point]",
O=c1oc2ccc3ccccc3c2cc1-c1nc2ccccc2o1,,inactive: 6.44%
COc1cc(-c2nnc(NC(=O)CCS(=O)(=O)c3ccccc3)o2)cc(OC)c1OC,"inconclusive [cytotoxic, single point]",
Cc1ccc(C(=O)COC(=O)CNC(=O)c2ccco2)cc1,,inactive: 1.56%
Cc1ccc(NC(=O)CSCC(=O)Nc2ccccc2N2CCCC2)cc1,,inactive: -10.1%
O=C(c1ccc(N2CCOCC2)c([N+](=O)[O-])c1)N1CCCCC1,,inactive: 5.65%
COc1ccc(C(=O)C[n+]2ccc(N(C)C)cc2)cc1,"inconclusive [cytotoxic, partial curve]",
COc1cccc(C(C(=O)NC2CCCCC2)N(C(=O)c2cccs2)c2ccc3c(c2)OCO3)c1 (stereo not given),"inconclusive [cytotoxic, single point]",
CN(C)Cc1c(C(=O)N/N=C/c2cccc(OCc3c(F)cccc3Cl)c2)nnn1-c1nonc1N,,inactive: -0.634%
Cc1ccc(NC(=O)Cn2sc3nc(C)cc(C)c3c2=O)c(Cl)c1,"inconclusive [cytotoxic, single point]",
Cc1ccc(-c2ccc(CN3C(CC(C)C)C(=O)N(Cc4cn(CCC5OCCO5)nn4)CCS3(=O)=O)cc2)cc1 (stereo not given),active: 18.4 µM,
Oc1ccccc1/C=N/NC(=S)NCCc1ccccc1,"inconclusive [cytotoxic, single point]",

Structure (SMILES),Potency,"activity, negative = toxicity"
C/C(=N\NC(=O)C1CCCC1)c1ccc(NC(=O)C(F)(F)F)cc1,"inconclusive [cytotoxic, single point]",
COc1ccccc1N1CCN(C(=O)c2c(-c3c(F)cccc3Cl)noc2C)CC1,"inconclusive [cytotoxic, single point]",
CC12CCC(=O)N1C(C(=O)NNC(=O)c1ccc(F)cc1)CS2 (stereo not given),,inactive: -9.8%
Cc1cc2oc3ccc(NCCC4CCCN4C)cc3c(=O)c2cc1C (stereo not given),"inconclusive [cytotoxic, single point]",
CC(=O)c1cccc(CN2CCC(C(=O)Nc3ccc(-c4cccc(C)c4)cc3)CC2)c1,active: 20.6 µM,
CCn1c(Cc2ccc(OC)cc2)nnc1SCC(=O)NC1CC1,"inconclusive [rising, partial curve]",
Clc1ccc(CNC2CCN(Cc3ccccc3)CC2)cc1,"inconclusive [cytotoxic, partial curve]",
Cc1ccc(C)n1-c1ccc(N2CCOCC2)c(Br)c1,"inconclusive [cytotoxic, single point]",
Cc1c(Br)cc(C(=O)OC2CCN(C)CC2)c(C)c1C,"inconclusive [cytotoxic, single point]",
CC1(C(=O)NS(=O)(=O)c2ccccc2Cl)CCN1C(=O)c1ccccc1CCc1ccccc1 (stereo not given),,inactive: -10.6%
Nc1nc(N)c(-c2cccc(C(F)(F)F)c2)c(Cc2cccc(C(F)(F)F)c2)n1,active: 4.61 µM,
Cc1ccc(/C=N/NC(=O)c2c(-c3ccccc3)noc2C)o1,,inconclusive: 31%
O=C(C[C@H]1C[C@H](C(=O)N2CCOCC2)[C@@]2(CCC3CCCC3)c3[nH]c4cc(-c5ccco5)ccc4c3CCN2C1=O)NCCc1ccccn1,"inconclusive [cytotoxic, single point]",
CCOC(=O)c1ccc2ncc(-c3ccccc3)nc2c1,,inactive: -5.08%
CCOC(=O)C1(C)CCN1C(=O)CSc1ccccc1 (stereo not given),"inconclusive [rising, single point]",
CC(=O)C1=CCC(c2ccccc2)N(Cc2ccccc2)C1 (stereo not given),"inconclusive [cytotoxic, single point]",
Cc1ccc(Nc2nc(NCc3ccccc3)nc3ccsc23)c(C)c1,"inconclusive [cytotoxic, single point]",
O=C1C2C3C=CC(C3)C2C(=O)N1/N=C/c1cn(Cc2ccc(F)cc2)c2ccccc12 (stereo not given),"inconclusive [cytotoxic, single point]",
Cc1cc(Nc2cccc(F)c2)nc(-c2ccccc2O)n1,"inconclusive [cytotoxic, single point]",
CO[C@@H]1CN(C)C(=O)c2ccc(NC(=O)C3CCC3)cc2OC[C@H](C)N(CC2CCCCC2)C[C@H]1C,"inconclusive [cytotoxic, single point]",
Cc1ccc(C)c(OCC(=O)Nc2nonc2NC(=O)COc2cc(C)ccc2C)c1,"inconclusive [cytotoxic, partial curve]",
Cc1cc(C)n(-c2ncnc3c2oc2ccccc23)n1,,inactive: 13.1%
CCOC(=O)c1c(NC(=O)CSc2nncs2)sc(C)c1-c1ccccc1,"inconclusive [cytotoxic, partial curve]",
CCN(CC)CC(O)COCCC12CC3CC(CC(C3)C1)C2 (stereo not given),"inconclusive [cytotoxic, single point]",

Structure (SMILES),Potency,"activity, negative = toxicity"
COc1cc2c(cc1OC)CN(c1nc(-c3cccnc3)nc3ccccc13)CC2,active: 18.4 µM,
Cc1ccc2cccc(OCC(=O)Nc3cccc(S(=O)(=O)N4CCCC4)c3)c2n1,,inactive: -22.8%
Cc1ccc2nc(-c3ccc(NC(=O)CSc4ccccc4)cc3)[nH]c2c1,active: 12.6 µM,
COc1cccc2cc(C(=O)NCCc3c[nH]c4ccccc34)c(=O)oc12,"inconclusive [cytotoxic, single point]",
Cc1c(Cl)cccc1NC(=S)NCCc1ccc(Cl)cc1,"inconclusive [cytotoxic, single point]",
N#Cc1cccc(Nc2c3c(nc4ccccc24)CCC3)c1,"inconclusive [cytotoxic, partial curve]",
COc1ccc(OC(F)(F)F)cc1CC1(C)C(=O)Nc2ccc(-c3ccsc3)cc21 (stereo not given),"inconclusive [cytotoxic, single point]",
COC(=O)c1ccccc1NC(=O)CCc1ccccc1,,inactive: 13.9%
O=C(CSc1ccc(C(F)(F)F)cc1[N+](=O)[O-])Nc1ccccc1,"inconclusive [cytotoxic, single point]",
Cn1c(CO)c(-c2ccccc2)c2cc([N+](=O)[O-])ccc21,"inconclusive [cytotoxic, single point]",
O=C(Nc1cccc(S(=O)(=O)N2CCCCC2)c1)c1ccccc1NS(=O)(=O)c1ccc(F)cc1,active: 23.1 µM,
Cc1ccc(C)c(S(=O)(=O)N2CCCCC2CCNC(=O)C(=O)NC2CC2)c1 (stereo not given),,inactive: -18.2%
CCOC(=O)C1(N(CC)CC)Sc2cc(C)ccc2NC1=O (stereo not given),"inconclusive [cytotoxic, single point]",
Cc1ccc(-c2c3c(nc4sc(C(N)=O)c(N)c24)CCC3)cc1,,inconclusive: -31% [cytotoxic]
CCN(c1cccc(C)c1)S(=O)(=O)c1ccc2c(c1)CCN2C(C)=O,"inconclusive [cytotoxic, single point]",
Cc1ccc(CSC2=Nc3ccccc3C3=NC(CCC(=O)NCc4ccco4)C(=O)N23)cc1 (stereo not given),,inactive: 2.1%
COc1ccccc1C1CCN(Cc2ccc(Cl)c(Cl)c2)CC1,"inconclusive [cytotoxic, partial curve, poor fit]",
O=C1C=CC(=O)c2c(O)c(N3CCN(CCOCCO)CC3)c(Br)c(O)c21,active: 5.8 µM,
Cc1cccc(C(=O)NNC(=O)C23CC4CC(CC(C4)C2)C3)c1O,,inconclusive: -19.1% [cytotoxic]
CCCc1nnc(NC(=O)c2c(O)c3cccc4c3n(c2=O)CC4)s1,"inconclusive [cytotoxic, single point]",
CC(C)(C)Cc1c(C2CCCCC2)nc2ccc(Cl)cn12,,inactive: -17.2%
O=C(CSc1nnc(CNc2ccc(F)cc2)o1)N1c2ccccc2Sc2ccccc21,"inconclusive [cytotoxic, single point]",
